From paper PMC12136788
The other results are listed elsewhere or left out.

B1: chr4:78448087:78448188:+|CDS|ENSG00000138759|msi1|total|mutant (ssRNA)
RNA: GGGAGUUCUACAGUCCGACGAUCGCCUCUGGAGAAUGGGAGAGUUUCCGUCCAGGGCUCAACCUUCACCUACCAGGAUAUCCCCGCUGGGCUGGUUGGGUAUGUGCCCCGUGUCCCUGGCAUGGUCGUGGAUGAGUUCCAGUUCAACAGAGGAUUGAGCAUCA
B2: chr12:30629720:30629821:-|3pUTR|ENSG00000133704|msi1|total|mutant (ssRNA)
RNA: GGGAGUUCUACAGUCCGACGAUCCUUCUUGCUUUCUCACCUAUUUGAAUUUUCUCCUACCUAAUUUGUUUGUGUCUUUAUUACCGCUCAGUUUGACUUCUCAAACUUUUCAAGGGUUGGGGCAGCUGCACUUUCCGGUUGCCUCAACAGAGGAUUGAGCAUCA
B3: chr1:17407970:17408071:-|3pUTR|ENSG00000179051|msi1|FALSE|unique (ssRNA)
RNA: GGGAGUUCUACAGUCCGACGAUCGGGUACCGUUCUGCUGACCCAGCUCCCUUUAGUCACGUUUGCUUGGCUCUGGUACCAAAUAGUUGGGAUUACCGAAGAGUCCCCUUCCUUGCGUGUCAGCACGGAUGCUGUGACUGCCACCAACAGAGGAUUGAGCAUCA
B4: chr15:63775065:63775180:-|CDS|ENSG00000103657|unk|FALSE|unique (ssRNA)
RNA: GGGAGUUCUACAGUCCGACGAUCUGGUUCAGCAGAUGUCCAUUCUGUUAGUGAACGCCCCCGGUCAAGCACUGAUGCACUUAUAGAAAUGGGUGUUCGAACUGGUCUAAGUUUAUUAUUUGCGCUUCUAAGACAAAGUUGGAUCAACAGAGGAUUGAGCAUCA
B5: chr1:203741760:203741861:+|3pUTR|ENSG00000058668|msi1|total|mutant (ssRNA)
RNA: GGGAGUUCUACAGUCCGACGAUCAUUUUGGUUUUGUAAAACGUACAUGCUUCAAUAAUUCUUUUUUGUGUCUUAAAUACUCACCGGGGAAAAAAACAGCUCACCCAAGGUGUCCGGUUUCACAUAUAUAUUCAUCAACUAUUUCAACAGAGGAUUGAGCAUCA
B6: chr14:74902662:74902763:+|3pUTR|ENSG00000119689|msi1|total|mutant (ssRNA)
RNA: GGGAGUUCUACAGUCCGACGAUCCCCCUGGGGACCAUGUGAUUAAGUUCCUAUCUUUUGAAAGUUUGUUCUGCAGAGACUUCCCGGAGGAUGCUGUGCCUCCCAAGCUCAGAGCAGCCUCUGUCCUGGCUGUGCACAUUCUCCCAACAGAGGAUUGAGCAUCA
B7: chr12:109554177:109554278:-|3pUTR|ENSG00000139428|unk|total|mutant (ssRNA)
RNA: GGGAGUUCUACAGUCCGACGAUCUUGCUAUGUGCAGUGCCCUGAGCCAAGUGUUCCACAGACAUUAUCUCAUUUGAACCCCACCGCAGCCCUGGAAGGAGGCAUUGGGUGGGGAACCAAGUUGUCCUGGGGAGUCAGUGCCAACAACAGAGGAUUGAGCAUCA
B8: chr11:59152587:59152688:+|CDS|ENSG00000166801|msi1|FALSE|unique (ssRNA)
RNA: GGGAGUUCUACAGUCCGACGAUCAUUGAAAACUUCAAGAAAAAAAUGAAAGUAAAAAAUGGGGAAACAUUAUUUGAAUUGCAUAGAACAACGUUUGGGAAAGUAACAAAAAAUUCUUCUUCGAUUAAAGUAGUGAAACUUCUUCAACAGAGGAUUGAGCAUCA
B9: chr16:57253408:57253449:+|3pUTR|ENSG00000102931|msi1_unk|total|mutant (ssRNA)
RNA: GGGAGUUCUACAGUCCGACGAUCUGUGUGGCCGAUUACUUAUCAGAAAACAUAUAUGUCAUCUCCCGAACGAAGAAAAAGCACCGCCGUUCAAUUCCCAGUGUGUCCCUUUGAUUUUUUUUUUUUAACCGUAAAAAUAAGAAUCAACAGAGGAUUGAGCAUCA
B10: chr2:130462818:130464144:-|CDS|ENSG00000196834|control|control|control (ssRNA)
RNA: GGGAGUUCUACAGUCCGACGAUCACCACCAUGUACCCUGGCAUGGCCCACAGAAUGCAGAAGGAGAUCGCUGCCCUGGCGCCUAGCAUGUUGAAGAUCAGGAUCAUUGCUCCUCCCAAGCGCAAGUACUCCGUGUGGGUCGGUCAACAGAGGAUUGAGCAUCA
B11: chr14:52327222:52327364:+|CDS|ENSG00000125384|unk|FALSE|unique (ssRNA)
RNA: GGGAGUUCUACAGUCCGACGAUCAUUUUUGCAUAUAUGAAUGAAACCUCUUCCCGAAAGGAAAAAUGGGACCUCCAAGCUCUUAGGUUUUUAUCAAUUAAUUCAAUAAUUGACCCUUGGGUCUUUGCCAUCCUUAGGCCUCCUCAACAGAGGAUUGAGCAUCA
B12: chr6:132328510:132328611:-|CDS|ENSG00000079931|msi1|FALSE|unique (ssRNA)
RNA: GGGAGUUCUACAGUCCGACGAUCUUGUGGGAUGUUGUAGGGUGGUCUUAUUUAUUGUGUCCUCCCUCUCAUUUAUGUUCGUGUAGGUUGAGCCAGUGAUACAGAGAGGCCAUGAGAGUCUGGUGCACCACAUCCUGCUCUAUCCAACAGAGGAUUGAGCAUCA
B13: chr10:119167843:119167906:-|3pUTR|ENSG00000165672|msi1_unk|total|mutant (ssRNA)
RNA: GGGAGUUCUACAGUCCGACGAUCUGCAUGAUCCCUCAUCCCUGAAAUUGAGUUUAUGCCGUCAUUUUACUUAUUUUAUUCAUCCGCUAACUUUGUCUAUGUAUAUUUCCCGAUAUUGAUCCGUGUAAUCGAUUAUAAAGGAUACAACAGAGGAUUGAGCAUCA
B14: ENSG00000198589:be:win_8151|CDS|ENSG00000198589|bound_else_gene|NA|bound_elsewhere_windowed (ssRNA)
RNA: GGGAGUUCUACAGUCCGACGAUCAGACUUGUUGAGGACCUUGGAGGGUCCUGAAAACUGCCUGAAACCAAAACUCAUUCAGGCUUCAAGAGAGGGUCAUUGUGUCAUAUUCUAUGAAAACGGCCUCUUCUGUACAUUCAGUGUCAACAGAGGAUUGAGCAUCA
B15: ENSG00000136451:be:win_2601|3pUTR|ENSG00000136451|bound_else_gene|NA|bound_elsewhere_windowed (ssRNA)
RNA: GGGAGUUCUACAGUCCGACGAUCCACUAACUAGGUAGUGUAUGCCCCUUCAGAACAUGCAGAGUGUAUCUUUUUUUAAAUUUCUCCUUCCGUUUCUUAAGUAUUGCGCAGAUUUGUUCAACUUUGUAAAUAUGGACAUCACUUCAACAGAGGAUUGAGCAUCA
B16: chr9:125307754:125307855:+|CDS|ENSG00000165219|unk|FALSE|unique (ssRNA)
RNA: GGGAGUUCUACAGUCCGACGAUCGGCUCUUGACAAUUUAUUGGCAAACCUACCCCCGGCCAAGCCAGGAAAAAGUAGCAGUUUAGAAAUGACUCCCUACAAUACACCUCAGCUAUCUCCAGCAACCACUCCAGCAAAUAAAAACAACAGAGGAUUGAGCAUCA
B17: chr1:209614869:209615270:-|three_prime_utr|ENSG00000196878|control|control|control (ssRNA)
RNA: GGGAGUUCUACAGUCCGACGAUCUUCCAUCUCCAGGAGACUUUCAUGCAGCCUAAAGUACAGCCUGGACCACCCCUGGUGUGUAGCUAGUAAGAUUACCCUGAGCUGCAGCUGAGCCUGAGCCAAUGGGACAGUUACACUUGACAACAGAGGAUUGAGCAUCA
B18: ENSG00000090857:stop:overlap|stop_codon|ENSG00000090857|stop_codon|NA|stop_codon (ssRNA)
RNA: GGGAGUUCUACAGUCCGACGAUCGGUGGAUGGAGAAACAUGGAUUUGAGAGGCCAAAGUACUUUGUUCCCCCCGACAAGGGCUAGAAUGUGUUCACAGAAGAAAAAGAACCACGUGGACUACACUAAACUCUACAGGGCCUUGCAACAGAGGAUUGAGCAUCA
B19: chr5:149977868:149977977:+|CDS|ENSG00000155850|unk|total|mutant (ssRNA)
RNA: GGGAGUUCUACAGUCCGACGAUCUAUUAAAAAGCUGCAGAAGAAUUGCCAGUGCAGUCCAGCCAAAGCCAAAAAUAUGAUUUCCGGUUUCCUUCCUGUUUUGCAGUGGCUCCCAAAAUACGACCUAAAGAAAAACAUUUCCGGCAACAGAGGAUUGAGCAUCA
B20: chr6:7881277:7881391:+|3pUTR|ENSG00000153162|unk|total|mutant (ssRNA)
RNA: GGGAGUUCUACAGUCCGACGAUCGCUGUUUAUGAACGGAAAUCAUGAUUUCCCUUGCCGAAAGUGAGGCUCAGAUUAAAUUUCCGAAUAUUUUCUAAAUGUCUUUUUCACAAUCAUGUACUGGGAAGGCAAUUUCAUACUAAACAACAGAGGAUUGAGCAUCA
B21: chr19:57593639:57593745:+|3pUTR|ENSG00000171649|unk|FALSE|unique (ssRNA)
RNA: GGGAGUUCUACAGUCCGACGAUCUGAACCUUCUUAUUUCUCUACAUUCUUGCCAUACUUGGUAUGGUUAGUCUUUUUAAUUUUAGUUGUUUUAAUAGCUGUAUAAUAGCAUCUGUCUGUGAUUUUAUUGCAUUUUUCUGGUAUCAACAGAGGAUUGAGCAUCA
B22: chr3:170465896:170466000:-|3pUTR|ENSG00000013293|unk|total|mutant (ssRNA)
RNA: GGGAGUUCUACAGUCCGACGAUCACUCCGGCCGUUGCAUUCCAUGAGAUCACAUUUCACUUCUGAACCUUAUUCCUUGGGGCCCGCUCACUUUCAGAGGUGUAUUUUUUUUUCCUGUUAUUUCCCAGAGCCGUUUCACUGAAGCAACAGAGGAUUGAGCAUCA

Target: MSI1 full-length (mouse, UniProt Q61474 1-362)
Sequence of UniProt Q61474 (Q61474 whole entry): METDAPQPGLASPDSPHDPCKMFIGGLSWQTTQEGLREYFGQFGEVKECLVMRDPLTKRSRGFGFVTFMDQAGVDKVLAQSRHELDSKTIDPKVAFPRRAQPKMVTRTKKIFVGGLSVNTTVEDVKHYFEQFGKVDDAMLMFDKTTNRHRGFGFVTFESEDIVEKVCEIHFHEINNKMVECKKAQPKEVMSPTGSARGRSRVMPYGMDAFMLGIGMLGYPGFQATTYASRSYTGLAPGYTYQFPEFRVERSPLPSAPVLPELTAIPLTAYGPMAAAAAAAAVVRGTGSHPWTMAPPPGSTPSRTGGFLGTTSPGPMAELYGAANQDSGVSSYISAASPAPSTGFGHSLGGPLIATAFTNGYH
Experiment: nsRBNS (natural sequence RNA bind-n-seq); RBNS binding buffer (assumed for nsRBNS): 25 mM Tris pH 7.5, 150 mM KCl, 3 mM MgCl2, 0.01% Triton X-100, 500 ug/ml BSA, 20 U/ml SUPERase-In, 4 C; UNK is unkempt and MSI1 is Musashi-1; names of the RNAs are library labels; protein concentration not given here; high values mean tight binding

Binder | binding signal
B1 | 0.461 enrichment R
B2 | 0.628 enrichment R
B3 | 0.973 enrichment R
B4 | 0.851 enrichment R
B5 | 0.777 enrichment R
B6 | 0.344 enrichment R
B7 | 0.414 enrichment R
B8 | 0.574 enrichment R
B9 | 0.465 enrichment R
B10 | 0.506 enrichment R
B11 | 0.397 enrichment R
B12 | 0.912 enrichment R
B13 | 2.84 enrichment R
B14 | 0.254 enrichment R
B15 | 5.52 enrichment R
B16 | 1.22 enrichment R
B17 | 0.551 enrichment R
B18 | 0.544 enrichment R
B19 | 0.245 enrichment R
B20 | 0.37 enrichment R
B21 | 19.1 enrichment R
B22 | 0.51 enrichment R
